10 variants from the supplement of paper PMC12217912 can be followed below.

B1: TEV protease; numbered along this chain (parent)
chain: MGESLFKGPRDYNPISSSICHLTNESDGHTTSLYGIGFGPFIITNKHLFRRNNGTLVVQSLHGVFKVKDTTTLQQHLVDGRDMIIIRMPKDFPPFPQKLKFREPQREERICLVTTNFQTKSMSSMVSDTSCTFPSGDGIFWKHWIQTKDGQCGSPLVSTRDGFIVGIHSASNFTNTNNYFTSVPKNFMELLTNQEAQQWVSGWRLNADSVLWGGHKVFMVKPEEPFQPVKEATQL

This experiment covers variants of B1. Description: raw area under fraction-flipped curve 0-4 h after induction (AUC4h, not background-subtracted), DNA-recorder readout of cleavage of the substrate (dimensionless); higher = more cleavage of the substrate by the protease variant. The conditions noted are these: temperature: 34 °C; time window: 0-4 h after rhamnose induction. On the procedure: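 In vivo DNA recorder in E. coli TOP10(DE3) ΔrhaA at 34 °C. Each TEVp single-site mutant (parent TEVp 0) is paired with a single-site variant of the 7-mer TEVs (canonical ENLYFQ|S). The substrate sits between flexible linkers in a Bxb1-sfGFP-TEVs-SsrA fusion, so cleavage stabilises Bxb1 and speeds flipping of a recombination array, read by NGS. The value is the raw area under the fraction-flipped curve over 0-4 h after rhamnose induction (AUC4h), with ≥20 reads per time point. It is not background-subtracted; inactive controls average about 0.047.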

This is one part of the list. Sequences were assembled here from the parent chain. Values near 0.05 are background.
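Further: Bxb1 expression induced with 0.2% (w/v) L-rhamnose at OD600 near 0.5, cultures sampled hourly, flipped fraction per protease–substrate barcode pair counted by paired-end Illumina sequencing.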

For MGESLFKGPRDYNPISSSICHLTNESDGHTTSLYGIGFGPFIITNKHLFRRNNGTLVVQSLHGVFKVKDTTTLQQHLVDGRDMIIIRMPKDFPPFPQKLKFREAQREERICLVTTNFQTKSMSSMVSDTSCTFPSGDGIFWKHWIQTKDGQCGSPLVSTRDGFIVGIHSASNFTNTNNYFTSVPKNFMELLTNQEAQQWVSGWRLNADSVLWGGHKVFMVKPEEPFQPVKEATQL [P104A], the “area with substrate ECLYFQS” value came out at 0.105, the “area with substrate EKLYFQS” value stood at 0.131, the “area with substrate EMLYFQS” value was 0.097 and the “area with substrate EQLYFQS” value was 0.104. Further, the “area with substrate ERLYFQS” value turned out to be 0.0785, the “area with substrate ESLYFQS” value stood at 0.103, the “area with substrate ETLYFQS” value came out at 0.0988 and the “area with substrate EVLYFQS” value was found to be 0.0792. Besides, the “area with substrate EWLYFQS” value was determined as 0.0926 and the “area with substrate EYLYFQS” value amounted to 0.0986.
MGESLFKGPRDYNPISSSICHLTNESDGHTTSLYGIGFGPFIITNKHLFRRNNGTLVVQSLHGVFKVKDTTTLQQHLVDGRDMIIIRMPKDFPPFPQKLKFRESQREERICLVTTNFQTKSMSSMVSDTSCTFPSGDGIFWKHWIQTKDGQCGSPLVSTRDGFIVGIHSASNFTNTNNYFTSVPKNFMELLTNQEAQQWVSGWRLNADSVLWGGHKVFMVKPEEPFQPVKEATQL [P104S]: the “area with substrate ECLYFQS” value turned out to be 0.0561, the “area with substrate EDLYFQS” value was found to be 0.0571, the “area with substrate EELYFQS” value amounted to 0.0714 and the “area with substrate EFLYFQS” value came to 0.062. Also, the “area with substrate EGLYFQS” value was determined as 0.0451, the “area with substrate EPLYFQS” value is 0.0593, the “area with substrate EQLYFQS” value was found to be 0.0532 and the “area with substrate ERLYFQS” value worked out at 0.0733. Besides, the “area with substrate ESLYFQS” value was determined as 0.0598, the “area with substrate ETLYFQS” value came to 0.064, the “area with substrate EVLYFQS” value was determined as 0.0484 and the “area with substrate EYLYFQS” value was 0.0611.
On to MGESLFKGPRDYNPISSSICHLTNESDGHTTSLYGIGFGPFIITNKHLFRRNNGTLVVQSLHGVFKVKDTTTLQQHLVDGRDMIIIRMPKDFPPFPQKLKFRENQREERICLVTTNFQTKSMSSMVSDTSCTFPSGDGIFWKHWIQTKDGQCGSPLVSTRDGFIVGIHSASNFTNTNNYFTSVPKNFMELLTNQEAQQWVSGWRLNADSVLWGGHKVFMVKPEEPFQPVKEATQL [P104N], for which the “area with substrate ECLYFQS” value turned out to be 0.041, the “area with substrate EDLYFQS” value turned out to be 0.0499, the “area with substrate EILYFQS” value came to 0.04 and the “area with substrate EKLYFQS” value is 0.0304. In addition, the “area with substrate ELLYFQS” value was determined as 0.052, the “area with substrate EMLYFQS” value was determined as 0.0391, the “area with substrate EPLYFQS” value stood at 0.0473 and the “area with substrate EQLYFQS” value turned out to be 0.0992. Further, the “area with substrate ERLYFQS” value came to 0.0513.
In the case of MGESLFKGPRDYNPISSSICHLTNESDGHTTSLYGIGFGPFIITNKHLFRRNNGTLVVQSLHGVFKVKDTTTLQQHLVDGRDMIIIRMPKDFPPYPQKLKFREPQREERICLVTTNFQTKSMSSMVSDTSCTFPSGDGIFWKHWIQTKDGQCGSPLVSTRDGFIVGIHSASNFTNTNNYFTSVPKNFMELLTNQEAQQWVSGWRLNADSVLWGGHKVFMVKPEEPFQPVKEATQL [F95Y], the “area with substrate ECLYFQS” value worked out at 0.0978, the “area with substrate EDLYFQS” value came out at 0.135, the “area with substrate EFLYFQS” value came out at 0.0979 and the “area with substrate EGLYFQS” value turned out to be 0.087. The “area with substrate EILYFQS” value was 0.0894, the “area with substrate EKLYFQS” value came out at 0.112, the “area with substrate ELLYFQS” value is 0.0871 and the “area with substrate EMLYFQS” value turned out to be 0.12. Also, the “area with substrate EPLYFQS” value was found to be 0.147, the “area with substrate EQLYFQS” value stood at 0.089, the “area with substrate ERLYFQS” value is 0.103 and the “area with substrate ESLYFQS” value stood at 0.0862. Also, the “area with substrate ETLYFQS” value was 0.0942.
Regarding MGESLFKGPRDYNPISSSICHLTNESDGHTTSLYGIGFGPFIITNKHLFRRNNGTLVVQSLHGVFKVKDTTTLQQHKVDGRDMIIIRMPKDFPPFPQKLKFREPQREERICLVTTNFQTKSMSSMVSDTSCTFPSGDGIFWKHWIQTKDGQCGSPLVSTRDGFIVGIHSASNFTNTNNYFTSVPKNFMELLTNQEAQQWVSGWRLNADSVLWGGHKVFMVKPEEPFQPVKEATQL [L77K], the “area with substrate ECLYFQS” value was found to be 0.0471, the “area with substrate EDLYFQS” value is 0.0496, the “area with substrate EFLYFQS” value came out at 0.0572 and the “area with substrate EHLYFQS” value stood at 0.0457. Also, the “area with substrate EILYFQS” value turned out to be 0.0684, the “area with substrate ESLYFQS” value amounted to 0.0757 and the “area with substrate EWLYFQS” value stood at 0.0561.
MGESLFKGPRDYNPISSSICHLTNESDGHTTSLYGIGFGPFIITNKHLFRRNNGTLVVQSLHGVFKVKDTTTLQQHLVDGRDMIIIRMPKDFPPFHQKLKFREPQREERICLVTTNFQTKSMSSMVSDTSCTFPSGDGIFWKHWIQTKDGQCGSPLVSTRDGFIVGIHSASNFTNTNNYFTSVPKNFMELLTNQEAQQWVSGWRLNADSVLWGGHKVFMVKPEEPFQPVKEATQL [P96H]: the “area with substrate ECLYFQS” value amounted to 0.13, the “area with substrate EDLYFQS” value worked out at 0.147, the “area with substrate EELYFQS” value came out at 0.0889 and the “area with substrate EFLYFQS” value stood at 0.118. The “area with substrate EHLYFQS” value stood at 0.0802, the “area with substrate EILYFQS” value came to 0.109, the “area with substrate EKLYFQS” value is 0.0982 and the “area with substrate ELLYFQS” value was 0.0673. Also, the “area with substrate EQLYFQS” value worked out at 0.129, the “area with substrate ERLYFQS” value worked out at 0.087, the “area with substrate ESLYFQS” value is 0.106 and the “area with substrate EVLYFQS” value is 0.105. Besides, the “area with substrate EWLYFQS” value is 0.101 and the “area with substrate EYLYFQS” value is 0.0566.
MGESLFKGPRDYNPISSSICHLTNESDGHTTSLYRIGFGPFIITNKHLFRRNNGTLVVQSLHGVFKVKDTTTLQQHLVDGRDMIIIRMPKDFPPFPQKLKFREPQREERICLVTTNFQTKSMSSMVSDTSCTFPSGDGIFWKHWIQTKDGQCGSPLVSTRDGFIVGIHSASNFTNTNNYFTSVPKNFMELLTNQEAQQWVSGWRLNADSVLWGGHKVFMVKPEEPFQPVKEATQL [G35R]: the “area with substrate ECLYFQS” value turned out to be 0.048 and the “area with substrate ERLYFQS” value was 0.039.
MGESLFKGPRDYNPISSSICHLTNESDGHTTSLYGIGFGPFIITNKHLFRRNNGTLVVQSLHGVFKVKDTTTLQQHLVDGRDMIIIRTPKDFPPFPQKLKFREPQREERICLVTTNFQTKSMSSMVSDTSCTFPSGDGIFWKHWIQTKDGQCGSPLVSTRDGFIVGIHSASNFTNTNNYFTSVPKNFMELLTNQEAQQWVSGWRLNADSVLWGGHKVFMVKPEEPFQPVKEATQL [M88T]: the “area with substrate ECLYFQS” value came out at 0.0807, the “area with substrate EKLYFQS” value turned out to be 0.0693, the “area with substrate EMLYFQS” value is 0.103 and the “area with substrate EPLYFQS” value turned out to be 0.0939. Further, the “area with substrate ERLYFQS” value was 0.114, the “area with substrate ESLYFQS” value was found to be 0.0952, the “area with substrate ETLYFQS” value is 0.137 and the “area with substrate EWLYFQS” value was 0.0672.
Turning to MGESLFKGPRDYNPISSSICHLTNESDGHTTSLYGIGFGPFIITNKHDFRRNNGTLVVQSLHGVFKVKDTTTLQQHLVDGRDMIIIRMPKDFPPFPQKLKFREPQREERICLVTTNFQTKSMSSMVSDTSCTFPSGDGIFWKHWIQTKDGQCGSPLVSTRDGFIVGIHSASNFTNTNNYFTSVPKNFMELLTNQEAQQWVSGWRLNADSVLWGGHKVFMVKPEEPFQPVKEATQL [L48D], the “area with substrate ECLYFQS” value was found to be 0.0583, the “area with substrate EGLYFQS” value is 0.0488, the “area with substrate EHLYFQS” value came to 0.0651 and the “area with substrate EILYFQS” value came to 0.0552. Moreover, the “area with substrate EKLYFQS” value amounted to 0.0552, the “area with substrate ELLYFQS” value amounted to 0.0596, the “area with substrate EMLYFQS” value worked out at 0.0613 and the “area with substrate EPLYFQS” value is 0.0557. Further, the “area with substrate EQLYFQS” value came out at 0.0612, the “area with substrate ERLYFQS” value came out at 0.0758, the “area with substrate ESLYFQS” value came to 0.0567 and the “area with substrate ETLYFQS” value is 0.0605. Moreover, the “area with substrate EVLYFQS” value was determined as 0.0443, the “area with substrate EWLYFQS” value worked out at 0.0653 and the “area with substrate EYLYFQS” value was 0.0576.
Take MGESLFKGPRDYNPISSSICHLTNESDGHTTSLYGIGFGPFIITNKHYFRRNNGTLVVQSLHGVFKVKDTTTLQQHLVDGRDMIIIRMPKDFPPFPQKLKFREPQREERICLVTTNFQTKSMSSMVSDTSCTFPSGDGIFWKHWIQTKDGQCGSPLVSTRDGFIVGIHSASNFTNTNNYFTSVPKNFMELLTNQEAQQWVSGWRLNADSVLWGGHKVFMVKPEEPFQPVKEATQL [L48Y]: the “area with substrate ECLYFQS” value turned out to be 0.0654, the “area with substrate EDLYFQS” value was 0.0505, the “area with substrate EELYFQS” value was found to be 0.0608 and the “area with substrate EGLYFQS” value was 0.0718. The “area with substrate EHLYFQS” value is 0.056, the “area with substrate EMLYFQS” value was 0.0668, the “area with substrate EPLYFQS” value amounted to 0.0633 and the “area with substrate EQLYFQS” value stood at 0.0485. Moreover, the “area with substrate EVLYFQS” value turned out to be 0.0559 and the “area with substrate EWLYFQS” value worked out at 0.0682.
